# The whole screen tested about 370,000 compounds, of which about 500 (0.14%) were called active. The inconclusive results got no clear call from the source; some entries with a clear call stand among them for comparison. The call rests on the fitted dose curve; in most records, active means well fitted activation curve with a large enough effect; inconclusive means small, poorly fitted or top-dose-only effect; inactive means no such curve, though single readings can be large or run the other way. Potencies of inconclusive entries are doubtful fits and often do not repeat.
# Assay: qHTS of alpha-syn Inhibitors; further: nearly all actives have a fitted effect of over 65% in size; on growth rescue (activation): % of control where 0% means no effect
# Conditions: Yeast expressing alpha-synuclein, BacTiter-Glo, 24 h; Potency: growth rescue unless noted; growth rescue (activation): at 46.1 µM (top of the series) unless noted
# Method in brief: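 Rescue of yeast growth: cells expressing toxic alpha-synuclein, induced in galactose at OD600 0.02, incubated with compound 24 h at 30 C. ATP luminescence quantified growth; inhibitors of toxicity appear as activators.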
# Potency means the concentration at half of the fitted maximal effect; tags describe the fitted curve by direction and shape.
SMILES,Potency,growth rescue (activation)
O=C(Nc1ccc(F)cc1F)c1cccc(S(=O)(=O)N2CCCCC2)c1,"inconclusive: 31.6 µM [activator, single point]",–
O=c1[nH]c(=O)c2ncn(C3OC(CO)C(O)C3O)c2[nH]1 (stereo unspecified),"inconclusive: 0.562 µM [activator, full curve, poor fit]",–
CC(=O)c1sc(NC(=O)CCc2ccccc2)nc1C,"inconclusive: 25.1 µM [activator, single point]",–
COc1ccc(NC(=O)c2ccc3c(c2)N(Cc2cccc(Cl)c2)C(=O)c2ccccc2S3(=O)=O)cc1Cl,–,inactive: 4.17%
Cc1ccsc1C(=O)N1CCC1(C)C(=O)NCc1cccc2ccccc12 (stereo unspecified),"inconclusive: 25.1 µM [activator, single point]",–
CC(C)CC1(C)NC(=O)N(CC(=O)N2C(C)CCCC2C)C1=O (stereo unspecified),–,inconclusive: 580% [activator] [at 1.84 µM]
O=C(Nc1nnc(-c2cccs2)o1)c1cc(-c2ccccc2)nc2ccccc12,"inconclusive: 5.62 µM [activator, single point]",–
CCOC(=O)[C@]12CCCC=C1N(Cc1ccc3c(c1)OCO3)C(=O)[C@H](CC(=O)N1CCCC1)C2,"inconclusive: 28.2 µM [activator, single point]",–
CC(=O)N1CC=C2C(C#N)=C(N)C(C#N)(C#N)C(CCc3ccccc3)C2C1 (stereo unspecified),"inconclusive: 6.31 µM [activator, single point]",–
NC(=O)c1nsc(C(=O)N(c2ccccc2)C(C(=O)NC2CCCC2)c2ccc3ncccc3c2)c1N (stereo unspecified),–,inactive: -1.26%
O=C(O)c1ccc(NCc2nc3ccccc3n2Cc2ccccc2)cc1,"inconclusive: 15.8 µM [activator, partial curve]",–
CC(C)C(=O)Nc1cccc(C(=O)N2CCCCC2C)c1 (stereo unspecified),"inconclusive: 22.4 µM [activator, single point]",–
Cc1cc2cc(C(=O)N3CCc4c([nH]c5ccccc45)C3c3ccccn3)ccc2o1 (stereo unspecified),"inconclusive: 17.8 µM [activator, single point]",–
O=C(Nc1ccccc1)N1N=C(c2cccs2)CC1c1cccs1 (stereo unspecified),"inconclusive: 8.91 µM [activator, partial curve]",–
Cc1ccc(Cl)cc1N1CCN(Cc2nnnn2Cc2ccco2)CC1,"inconclusive: 35.5 µM [activator, single point]",–
CCOc1c(Br)cc(/C=C(\C#N)C(=O)NC2CC2)cc1OC,"inconclusive: 35.5 µM [activator, single point]",–
Cc1oc(S(=O)(=O)N2CCCC2)cc1C(=O)Nc1ccccc1,"inconclusive: 3.16 µM [activator, single point]",–
COc1cc(N2C(=O)CSC23C(=O)N(C)c2ccccc23)cc(OC)c1OC (stereo unspecified),"inconclusive: 5.62 µM [activator, single point]",–
CCC(C(=O)OCC(=O)Nc1ccc(F)cc1)c1ccccc1 (stereo unspecified),–,inactive: 24.4%
O=C(CCc1nnc(-c2ccc3c(c2)OCO3)o1)N1CCC(c2ccc(F)cc2)C1 (stereo unspecified),"inconclusive: 10 µM [activator, partial curve]",–
CCCN(C)C1CN(Cc2cn(CCCC(=O)OC)nn2)S(=O)(=O)C1 (stereo unspecified),"inconclusive: 31.6 µM [activator, single point]",–

SMILES,Potency,growth rescue (activation)
Cc1cc(C(C)(C)C)cc(CN2CCN(S(=O)(=O)c3cccs3)CC2)c1O,"inconclusive: 31.6 µM [activator, single point]",–
CC(=O)NC(C)(c1ccccc1)c1nc(-c2cccc(F)c2)cs1 (stereo unspecified),"inconclusive: 5.62 µM [activator, single point]",–
COC(=O)CN1C(=O)S/C(=C/c2ccc(N3CCCCC3)o2)C1=O,"inconclusive: 31.6 µM [activator, single point]",–
COc1cc2c(cc1NC(=O)CN1C(=O)NC3(CCc4ccccc43)C1=O)oc1ccccc12 (stereo unspecified),"inconclusive: 31.6 µM [activator, single point]",–
O=C(Nc1ccc(OCC(=O)N2CCOCC2)cc1)c1ccccc1F,"inconclusive: 5.62 µM [activator, single point]",–
COC(=O)c1cc(S(=O)(=O)NCc2cc(OC)c(OC)c(OC)c2)cn1C,–,inactive: -4.98%
COc1ccc(C2=Nc3ccccc3N(C(=O)c3ccc4c(c3)OCO4)C2C(=O)NCc2ccccc2)cc1 (stereo unspecified),–,inactive: 7.06%
c1ccc2c(c1)Sc1cnccc1N2CC1CO1 (stereo unspecified),"inconclusive: 25.1 µM [activator, single point]",–
c1ccc(-c2nc(-n3nc4ccccc4n3)nc3ccccc23)cc1,–,inactive: 0.664%
Cc1ccc2c(c1)c1c(n2CC(O)CNC2CCCCC2)CCCC1 (stereo unspecified),"inconclusive: 5.01 µM [activator, single point]",–
COC(=O)c1ccc(NC(=S)NN2CCCCC2c2cccnc2)cc1 (stereo unspecified),"inconclusive: 15.8 µM [activator, single point]",–
COc1cccc(CN2CCN(Cc3nc4c(s3)CCCC4)CC2CCO)c1 (stereo unspecified),"inconclusive: 35.5 µM [activator, single point]",–
COc1ccc(-c2cn[nH]c2-c2ccc(OCc3ccc(F)cc3)cc2O)cc1OC,"inconclusive: 31.6 µM [activator, single point]",–
CCOC(=O)c1ccc(NC2=CC(c3ccc(Br)cc3)N(c3ccc(C(=O)OCC)cc3)C2=O)cc1 (stereo unspecified),"inconclusive: 31.6 µM [activator, single point]",–
CCC(C)n1c(=N)c(S(=O)(=O)c2ccc(C)cc2)cc2c(=O)n3cc(C)ccc3nc21 (stereo unspecified),"inconclusive: 3.16 µM [activator, single point]",–
Cc1ccc(O)c(C2=Nc3ccccc3N=C(c3ccco3)C2)c1,–,inactive: 3.23%
Cc1cccc(C)c1N1C(=O)c2ccccc2NC(=O)C1C(=O)NCCc1ccccc1 (stereo unspecified),"inconclusive: 5.62 µM [activator, single point]",–
O=C(NCCc1ccccc1)c1ccccc1SCC(=O)N1CCCC1,"inconclusive: 4.47 µM [activator, single point]",–
CC1CCCN(S(=O)(=O)c2ccc(C(=O)Nc3nnc(C4CC4)o3)cc2)C1 (stereo unspecified),"inconclusive: 31.6 µM [activator, single point]",–
O=C(NCc1ccc2c(c1)OCO2)C1CC(c2ccccc2O)=NO1 (stereo unspecified),"inconclusive: 15.8 µM [activator, single point]",–
